Experimental data from the supplement of paper PMC10126150.
Sequences with one replicate were seen in a single cluster, so their values are uncertain.

system: ATP; assay: switch fluorescence ratio, 500 uM ATP over buffer (Cy3 cluster intensity, sum of 5 cycles each) (fold (ratio)); higher = stronger signal-on switching upon ATP binding; sequences stand for … in TCGTCGGCAGCGTCAGATGTGTATAAGAGACAGTTTTTTTTTTTTTTTTTTTTTTTTT…TC; conditions: aptamer strand: ATP DNA aptamer (quencher-CACCTGGGGGAGTATTGCGGAGGAAGG + anchor), 100 nM annealed; ATP concentration: 500 uM; one replicate
Summary of the method: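 Values give the fluorescence ratio for each switch-domain sequence, averaged from per-cluster ratios of summed target-cycle to summed buffer-cycle Cy3 intensity. The Cy3-labelled switching-strand clusters sat on a modified Illumina MiSeq flow-cell, were annealed to 100 nM quencher-labelled ATP aptamer, and were imaged in selection buffer, then after 15 min with 500 uM ATP at 22 °C. Five cycles ran with NaOH stripping and re-annealing between them, and clusters outside 100-1000 RFU were excluded.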
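Also: ATP exposure 15 min at 22 °C before imaging.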

Sequence	switch fluorescence ratio
TTATGAGGAT	1.02
TTATGAGGTC	1.08
TTATGCAGTA	1.03
TTATGCCTTA	1.02
TTATGGCCCC	0.953
TTATGGGGTC	0.961
TTATGGTGGA	0.999
TTATGTACAA	0.956
TTATTATAT	0.984
TTATTCAAT	0.995
TTATTCCCCT	1.05
TTATTCTCTT	1
TTATTGGACA	0.983
TTATTTACAA	1.01
TTCAAAACG	0.963
TTCAAAAGGA	0.941
TTCAACAAGT	0.99
TTCAACCTCG	1.04
TTCAACGCAT	1.54
TTCAACGTTT	0.958
TTCAAGGGC	0.982
TTCAATAATC	1.65
TTCAATACGG	1.27
TTCAATTTCA	1.02
TTCACCCAGC	1.26
TTCACGTCCA	1.06

Sequence	switch fluorescence ratio
TTCACTATGG	0.979
TTCACTTCGA	0.976
TTCAGAAACT	1.07
TTCAGACTAA	0.995
TTCAGCCTCG	1.03
TTCAGCGA	1.05
TTCAGCGATA	3.42
TTCAGCTGTA	1.03
TTCAGGGCAG	0.993
TTCAGGGCCT	1.05
TTCAGTATGT	1
TTCATAACAG	0.983
TTCATAATCA	0.978
TTCATACAAG	0.972
TTCATCTGGA	1.1
TTCATGAATC	0.994
TTCATGCGGA	1.04
TTCATGCTGT	0.991
TTCATGTCCT	1.04
TTCATTAGTT	1.02
TTCATTGAGG	0.995
TTCATTGATC	1.04
TTCATTGTGT	1.01
TTCATTTGCG	0.985
TTCCAAAGTG	1.07
TTCCAACTCG	1.02

Sequence	switch fluorescence ratio
TTCCAAGTAT	1.03
TTCCAATTGG	1.02
TTCCAGATGG	0.99
TTCCAGTAAC	1.01
TTCCATCGGA	1.02
TTCCCAGAAT	1.69
TTCCCATATT	1.01
TTCCCCGTCT	0.915
TTCCCCTGT	1.02
TTCCCGCCCT	1.07
TTCCCGGGCG	1.06
TTCCCTAAGT	1
TTCCGATGCC	1.4
TTCCGCAAAC	1.48
TTCCGCTGCT	1.11
TTCCGCTGGC	1.28
TTCCGTAACC	1.5
TTCCTATATT	0.994
TTCCTATGAC	1.01
TTCCTCCACG	1.5
TTCCTGATCC	0.982
TTCCTGCGAC	2.8
TTCCTGCTTT	1.2
TTCCTGG	0.99
TTCCTTATCC	1.16
TTCCTTTGTG	1.01

Sequence	switch fluorescence ratio
TTCGAAAAGG	1.04
TTCGAACGGC	1.01
TTCGAAGCCA	1.61
TTCGACTGGG	1.01
TTCGAGACTC	1
TTCGAGAGGC	1.14
TTCGAGGGGA	0.964
TTCGAGTGT	0.962
TTCGATGCG	1
TTCGATTACT	1.54
TTCGCCATTA	0.976
TTCGCCCCGA	1.01
TTCGCCTACT	1.14
TTCGGCATGT	1.02
TTCGGGCATC	1.06
TTCGGTTCTT	0.955
TTCGTACATT	0.978
TTCGTCAAAT	1
TTCGTCCACT	1.04
TTCGTCGCTT	1.12
TTCGTCGGTC	0.97
TTCGTCGTCT	1.03
TTCGTCTCCC	1.06
TTCGTCTCGT	0.986
TTCGTGACGC	0.976
TTCGTGAGTA	1.01

Sequence	switch fluorescence ratio
TTCGTTAATC	1.01
TTCGTTACGG	1.03
TTCGTTTCAT	1
TTCTAAGCAA	2.94
TTCTACCGAC	1.56
TTCTACCGGA	0.996
TTCTAGAAGT	1.01
TTCTAGCGCC	0.986
TTCTAGGAAC	1.02
TTCTAGGGTA	1.04
TTCTAGTAGA	1
TTCTAGTATG	0.986
TTCTATACGT	1.11
TTCTATTAAC	1.07
TTCTATTATT	1.01
TTCTCAGGGT	0.967
TTCTCCGAGG	1.09
TTCTCCTAGG	1.24
TTCTCCTTG	1.03
TTCTCGGTCA	1.02
TTCTCTCTTT	1.03
TTCTCTTCT	0.974
TTCTGCCACA	1.09
TTCTGGATTT	0.985
TTCTGTGAAA	1.01
TTCTTACGTA	1.02

Sequence	switch fluorescence ratio
TTCTTACTC	1.15
TTCTTCTCGC	0.94
TTCTTGCTGT	1.01
TTCTTGTTTG	0.957
TTCTTTTATT	0.985
TTGAACCCCT	1.4
TTGAAGACCC	1.03
TTGAAGACGA	0.964
TTGAAGATTG	0.999
TTGAAGGACG	0.955
TTGAAGGGCT	1
TTGAAGTGAG	0.979
TTGAATACGG	1.03
TTGAATCTT	0.971
TTGACAGCG	1.04
TTGACAGGCG	1.08
TTGACAGTGG	1.01
TTGACCGAAG	0.988
TTGACTAGGA	1.02
TTGACTGCGA	1.1
TTGACTGTG	0.974
TTGACTTTCT	1.04
TTGAGAAGGA	0.976
TTGAGGAGGA	0.996
TTGAGGTCCG	0.967
TTGAGTATAT	1.03

Sequence	switch fluorescence ratio
TTGAGTTGAG	0.976
TTGATACTC	1.25
TTGATACTTG	0.997
TTGATATGGC	0.953
TTGATCCTGT	1.01
TTGATCTGAC	1.07
TTGATCTTGT	0.963
TTGATGTTCT	0.962
TTGATGTTTT	0.957
TTGATTGAAC	0.975
TTGCAACAG	1.02
TTGCAACGGG	1.02
TTGCAATAGA	1.04
TTGCACCTGA	1.05
TTGCACGATA	1.12
TTGCAGACTA	0.991
TTGCAGCACT	1.11
TTGCAGCTGG	0.974
TTGCATGCAT	1.01
TTGCCAGGCG	0.983
TTGCCCCCCA	0.981
TTGCCCCGCG	1.09
TTGCCGAT	0.928
TTGCCGGGAT	1.03
TTGCCGTGGA	0.991
TTGCCTAAAC	0.982

Sequence	switch fluorescence ratio
TTGCCTACTG	0.899
TTGCCTATTG	1
TTGCGAGTAT	0.966
TTGCGAGTCA	0.985
TTGCGATCTA	1.03
TTGCGATGTT	1.03
TTGCGCAACA	1.06
TTGCGCTCGA	1.02
TTGCGGGCGG	0.989
TTGCGGTTGC	1.16
TTGCTAAATT	1.03
TTGCTACCTA	1.04
TTGCTACGTG	1
TTGCTATGGA	1.03
TTGCTCAAGG	1.01
TTGCTCCA	1.01
TTGCTCGAGG	1
TTGCTCGGTG	0.983
TTGCTGCTGG	1.02
